Screen size: about 280,000 compounds; about 100 (0.036%) were called active. The inconclusive results got no clear call from the source; some entries with a clear call stand among them for comparison. The call rests on the fitted dose curve; in most records, active means well fitted inhibition curve with a large enough effect in the signal ratio, with a control signal flat (not every such curve was filed as active); inconclusive means small, poorly fitted or top-dose-only effect, or effect the other way, or a change in a side signal; inactive means no such curve, though single readings can be large or run the other way; the % refers to the signal ratio. Potencies beside an inconclusive call are fits to weak or partial responses and may not hold up. “Side channel” marks fits to a control or component signal instead of the main read-out.
Biological target: Muscleblind-like protein 1 (Homo sapiens) (UniProt Q9NR56)
Assay: qHTS Assay for Inhibitors of MBNL1-poly(CUG) RNA binding
Conditions: TR-FRET MBNL1-His/biotin-(CUG)12 binding, 665/545 ratio; series mostly up to 57.5 µM
Procedure, shortened: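 His-tagged MBNL1 binding to biotinylated (CUG)12 RNA was measured by TR-FRET using terbium anti-His antibody (0.055 ng/ul final) and streptavidin-XL665 (5 nM final). Compounds were titrated 92 nM to 58 uM; 60 min at room temperature.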
Potency means the concentration at half of the fitted maximal effect; tags describe the fitted curve by direction and shape or compound fluorescence and quenching.

Chain of UniProt Q9NR56 (Q9NR56 whole entry, looked up): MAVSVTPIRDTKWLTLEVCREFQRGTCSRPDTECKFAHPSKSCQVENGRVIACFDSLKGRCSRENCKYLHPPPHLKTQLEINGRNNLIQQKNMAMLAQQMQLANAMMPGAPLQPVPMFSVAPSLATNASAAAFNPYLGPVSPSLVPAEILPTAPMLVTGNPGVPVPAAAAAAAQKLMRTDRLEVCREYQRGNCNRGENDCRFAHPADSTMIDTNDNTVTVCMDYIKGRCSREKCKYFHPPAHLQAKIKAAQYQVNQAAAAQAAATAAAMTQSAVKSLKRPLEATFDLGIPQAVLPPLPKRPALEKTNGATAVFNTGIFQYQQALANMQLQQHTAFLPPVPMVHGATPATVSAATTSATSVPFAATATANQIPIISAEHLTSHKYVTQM

Compound	Potency
CCCN1C(=O)/C(=C/c2nc3ccccc3c(=O)[nH]2)c2ccccc21	inconclusive: 0.891 µM [quencher, side channel, full curve, poor fit]
Cc1cc[n+](-c2nc3ccccc3nc2C(=C=[N-])C#N)cc1	inconclusive: 15.8 µM [quencher, side channel, partial curve]
C=CCNc1nc(C(=O)OCC(=O)c2ccc(C)c([N+](=O)[O-])c2)cs1	inconclusive: 25.1 µM [quencher, side channel, partial curve]
O=C(COc1cccnc1[N+](=O)[O-])NCCc1ccc(F)cc1	inconclusive: 25.1 µM [quencher, side channel, partial curve]
CCN(C1CCS(=O)(=O)C1)S(=O)(=O)c1cccc([N+](=O)[O-])c1 (configuration not stated)	inconclusive: 22.4 µM [quencher, single point]
O=C(CC(Nc1ccc(F)cc1)C(=O)OCC(=O)c1cccs1)c1ccccc1 (configuration not stated)	inconclusive: 39.8 µM [fluorescent, side channel, partial curve, poor fit]
CC1(C)Cc2c(cnn2-c2ccccc2)C(=O)/C1=N\NC(=O)c1ccccc1O	inconclusive: 39.8 µM [quencher, side channel, single point]
COc1ccc2c(CN(C)c3ccccc3)cc(=O)oc2c1	inconclusive: 25.1 µM [quencher, side channel, single point]
Cc1c(-c2ccccc2)cn2c1-c1ccc(C)n1CC2	inconclusive: 11.2 µM [quencher, side channel, partial curve]
O=[N+]([O-])c1cccnc1Oc1ccc(OCc2ccccc2)cc1	inconclusive: 10 µM [quencher, side channel, partial curve]
Cc1ccc(NC(=O)Nc2ccccc2)c(Br)c1	inconclusive: 7.08 µM [fluorescent, side channel, partial curve]
O=C(N/N=C/c1cc2ccccc2nc1Cl)/C(=C/c1cccs1)NC(=O)c1ccccc1	inconclusive: 15.8 µM [quencher, side channel, partial curve]
NC(=O)c1cccc2c1-c1ccccc1/C2=N/NC(N)=S	inconclusive: 8.91 µM [quencher, side channel, partial curve]
Clc1ccc(OCCOCCN2CCc3ccccc3C2)c(Cl)c1	inconclusive: 1 µM [fluorescent, side channel, partial curve]
O=C1/C(=C/c2ccccc2)Nc2ccccc21	inconclusive: 31.6 µM [quencher, side channel, partial curve]
CCOc1cccc(=O)c2c(C)n(C)c(C)c12	inconclusive: 25.1 µM [quencher, side channel, partial curve]
O=C1N=c2ccccc2=C1c1sc(NS(=O)(=O)c2ccccc2)nc1O	inconclusive: 25.1 µM [quencher, side channel, partial curve]
C=CCn1cccc(C(=O)Nc2ccc(OC)cc2OC)c1=O	inconclusive: 35.5 µM [quencher, side channel, single point]
CC(C)(C)Nc1nc(Cl)nc(NC2CCCCC2)n1	inactive

Compound	Potency
O=c1ccc(-c2ccc(S(=O)(=O)Nc3cccc(F)c3)o2)n[nH]1	inconclusive: 28.2 µM [quencher, single point]
Cc1cc(C(=O)NCCC2=CCCCC2)ccc1[N+](=O)[O-]	inconclusive: 10 µM [quencher, side channel, partial curve]
O=C(Cn1cnc([N+](=O)[O-])n1)N/N=C/c1cccc2ccccc12	inconclusive: 11.2 µM [activator, single point]
O=C(Nc1ccc2c(c1)OCCO2)C1CCN(C(=O)c2ccc([N+](=O)[O-])cc2)CC1	inconclusive: 28.2 µM [quencher, side channel, partial curve]
O=C(Cn1c2c(c(-c3ccccc3)cc1=O)CCCC2)N1CCCCCC1	inconclusive: 25.1 µM [fluorescent, side channel, partial curve]
CCOc1ccc2nc(SCCNS(=O)(=O)c3ccccc3)sc2c1	inconclusive: 0.158 µM [quencher, side channel, partial curve]
COc1ccc(C(=O)Nc2cc(C)c3c(=O)oc4ccccc4c3n2)cc1	inconclusive: 39.8 µM [quencher, side channel, single point]
Oc1c(N=Nc2ccc(F)cc2)ccc2ccccc12	inactive
C/C(=C1\SC(N2CCOCC2)=NC1=O)c1ccc(C)cc1	inconclusive: 22.4 µM [quencher, side channel, partial curve]
O=S(=O)(Nc1cccc2ccccc12)c1cccc2nonc12	inconclusive: 14.1 µM [quencher, side channel, partial curve]
Cc1cc(NC(=O)CN2CCN(C/C=C/c3ccccc3)CC2)c([N+](=O)[O-])cc1C	inactive
CCOc1ccc2c(c1)-c1c(ssc1=S)C(C)(C)N2C	inconclusive: 25.1 µM [quencher, side channel, single point]
O=C(N/N=C/c1cccs1)c1cc(-c2ccncc2)nc2ccccc12	inconclusive: 25.1 µM [quencher, side channel, single point]
Cc1cc(C(=O)OCC(=O)Nc2ccc(S(N)(=O)=O)cc2)c2ccccc2n1	inconclusive: 11.2 µM [quencher, side channel, partial curve]
COc1cccc(OC)c1NC(=O)c1nc2c(nnn2Cc2ccccc2Cl)c(=O)[nH]1	inactive
CCC1=Nc2ccccc2-c2nnc(SC)nc2O1	inconclusive: 3.16 µM [quencher, side channel, full curve]
CNC(=O)c1sc(-c2ccc(Cl)cc2)nc1C	inconclusive: 31.6 µM [quencher, side channel, single point]
CCOc1ccc(N=c2cc(-c3ccc(OC)cc3)oc3ccccc23)cc1	inactive

Reference: PubChem BioAssay AID2675 (National Center for Advancing Translational Sciences (NCATS), 2010)
